Results as given in PubChem BioAssay AID1963576 (National Center for Advancing Translational Sciences (NCATS), 2024).
In all, about 46,000 compounds went through this assay and about 60 (0.1%) were called active. Roughly 3% stayed inconclusive and do not appear here. The call rests on the fitted dose curve; in most records, active means well fitted inhibition curve with a large enough effect; inconclusive means small, poorly fitted or top-dose-only effect; inactive means no such curve, though single readings can be large or run the other way. Some of the results follow.

assay: Primary qHTS assay for Inhibitors of ovarian cancer metastasis using an organotypic tumor microenvironment (TME) model.; further: nearly all actives have a fitted effect of over 65% in size; details: SKOV3ip1-GFP adhesion/invasion on 3D omental model, fluorescence; series mostly up to 45.8 µM; activity change, negative = inhibition: at the top concentration
Text: PI: Ernst Lengyel MD., Ph.D. Department of Obstetrics and Gynecology, Section of Gynecologic Oncology University of Chicago Medicine, Chicago, Illinois. The tumor microenvironment (TME) is a key determinant of metastatic efficiency. We performed a quantitative high-throughput screen (qHTS) of diverse medicinal chemistry tractable scaffolds (44,420 compounds) and pharmacologically active small molecules (386 compounds) using a layered organotypic, robust assay representing the ovarian cancer metastatic TME. This 3D model contains primary human mesothelial cells, fibroblasts, and extracellular matrix, to which fluorescently labeled ovarian cancer cells are added. Initially, 100 compounds inhibiting ovarian cancer adhesion/invasion to the 3D model in a dose-dependent manner were identified. Of those, eight compounds were confirmed active in five high-grade serous ovarian cancer cell lines and were further validated in secondary in vitro and in vivo biological assays. […] Specifically, NCGC00117362 and PP-121 inhibited ovarian cancer adhesion, invasion, and proliferation, whereas milciclib inhibited ovarian cancer invasion and proliferation. […] To evaluate the clinical potential of NCGC00117362, structure - activity relationship studies were performed. […] The three compounds identified have promise as therapeutics for prevention and treatment of ovarian cancer metastasis.
PROTOCOL TABLE (as described by Inglese J, Shamu CE and Guy RK. 2007) SEQUENCE No. (e.g., 1, 2, 3, etc.); […] (e.g., Cells, Incubation, Reagent, etc.); VALUE; DESCRIPTION. 1; Cells; 4 uL; primary human omental fibroblast, black, clear bottom, low base, 1536-well Aurora assay plate. 2; Incubation; 48 hr; 37C. 3; Cells; 3 uL; 1,200 SKOV3ip1-GFP cells. 4; Compounds; 23nL; acoustic dispenser. 5; Incubation; 2 hr; room temperature. 6; Incubation; 16 hr; 37C. 7; Wash; 5 uL; 1x PBS. 8; Fixing; 5 uL; 4% paraformaldehyde (PFA). 9; Incubation; 15 min; room temperature 10; Wash, 5 uL; 1x PBS. 11; Detection; Fluorescence, excitation filter 488 nm, emission filter 509 nm. NOTES (numbers refer to Sequence numbers above) 1. For the 1,536-well format, 40 primary human omental fibroblasts and 400 mesothelial cells were seeded with 0.02 µg fibronectin and 0.02 µg collagen type I in 4 µL of growth media (2.3 mm2; Supplementary Fig. S1A). 2. Assay plates were incubated for 48 hours at 37 C. 3. After incubation, 1,200 SKOV3ip1-GFP were seeded in 3 µL of serum-free media (growth media minus FBS) on top of primary human omental cells. 4. Compounds or controls were added to each well immediately after the addition of the cancer cells. Compounds were screened in four doses (0.36-46 µmol/L), and the plates contained the positive control (Tomatine) in eight doses (0.035-75 µmol/L) and DMSO (equal volume controls) 5 - 6. The plates were incubated at room temperature for 2 hours and then at 37 degrees C for 16 hours. 7 - 10. Following incubation, the media were aspirated and each well washed with PBS (5 µL) and then fixed with 4% paraformaldehyde (PFA; 5 µL). After 15 minutes, the PFA solution was aspirated, PBS (5 µL) was added. 11. The number of GFP-labeled cells analyzed using a fluorescent cytometer TTP LabTech Acumen eX3 using 488 nm excitation filter and 509 nm emission filter. Data was normalized to the DMSO treated for negative and Tomatine treated wells for positive control. REFERENCES: Inglese J, Shamu CE and Guy RK, Reporting data from high throughput screening of small molecule libraries, Nature Chemical Biology, 2007, 3(8): 438-441. doi.org/10.1038/nchembio0807-438. Yasgar A, Shinn P, Jadhav A, Auld DS, Michael S, Zheng W, Austin CP, Inglese J and Simeonov A, Compound Management for Quantitative High-Throughput Screening. J. Assoc. Lab. Auto., 2008, 13: 79-89. doi: 10.1016/j.jala.2007.12.004.

Compound | activity change, negative = inhibition | outcome
CCOC(=O)c1c(C)[nH]c(C)c1S(=O)(=O)NCC(=O)Nc1ccc(C)c(N(C)C)c1 | inactive: 207% | –
CCOc1ccccc1NC(=O)c1ccc2c(c1)CCN2S(=O)(=O)c1ccc(C)cc1 | inactive: -6.53% | –
COc1cc2c(=O)c(C(=O)c3ccc(C)c(C)c3)cn(Cc3ccc(F)cc3)c2cc1OC | inactive: -3.88% | –
Cc1nc(SCC(=O)Nc2ccccc2C)cc(-c2ccccc2)n1 | inactive: 18% | –
Cc1ccccc1NC(=O)CSc1cn(CC(=O)N2CCCCCC2)c2ccccc12 | inactive: 15.8% | –
COc1ccc(NC(=O)Cn2c(=O)n(CCc3ccccc3)c(=O)c3c4c(sc32)CCCC4)cc1 | – | inactive
CCOC(=O)c1c(NC(=O)c2nc(SCC)ncc2Cl)sc2c1CCCC2 | inactive: -3.34% | –
Cc1ccc(N2C(=O)CSC23C(=O)N(Cc2ccccc2F)c2ccccc23)cc1F (stereo not given) | – | inactive
Cc1ccccc1Nc1c(-c2ccc(Cl)cc2)nc2c(C)cccn12 | inactive: 0.228% | –
CC(C)c1ccc(NC(=O)C2CCN(S(=O)(=O)c3cccc4nonc34)CC2)cc1 | inactive: 27.1% | –
Cc1ccccc1NC(=O)c1ccc2[nH]c(C)c(C)c2c1 | – | inactive
COc1cc(NC(=O)CC2C(=O)OCCN2Cc2ccccc2)cc(OC)c1 (stereo not given) | – | inactive
CCC1CN(S(=O)(=O)c2cc(-c3cc(C)no3)ccc2C)c2cc(Cl)ccc2O1 (stereo not given) | inactive: -8.35% | –
COc1cc(NS(=O)(=O)c2ccc(NC(=O)c3cccc(F)c3)cc2)nc(OC)n1 | inactive: 13.1% | –
CCC(CC)c1nn2c(=O)cc(COc3ccc(NC(=O)c4ccccc4C)cc3)nc2s1 | – | inactive
CCc1nn2c(-c3ccccc3OC)ccnc2c1-c1ccccc1 | – | inactive
O=C(Nc1ccc(C(=O)OCc2cc(=O)n3c4c(sc3n2)CCCC4)cc1)c1ccc(F)cc1 | inactive: 1.65% | –
O=C(CCCCn1c(=O)c2ccccc2n(CC(=O)Nc2cccc(C(F)(F)F)c2)c1=O)NCc1ccc2c(c1)OCO2 | – | inactive
COc1ccc(S(=O)Cc2ccc(C(=O)N3CCN(c4cccc(C)c4C)CC3)o2)cc1 (stereo not given) | inactive: -5.19% | –
Cc1c(C(=O)NCc2ccc(Cl)cc2)sc2nc3n(c(=O)c12)CCCCC3 | inactive: 0.533% | –

Compound | activity change, negative = inhibition | outcome
Cc1c(Cl)cccc1NC(=O)Cn1c(=O)n(Cc2ccco2)c(=O)c2sc3ccccc3c21 | – | inactive
CCc1cccc(C)c1NC(=O)CCS(=O)(=O)c1cc(Br)cc2c1N(C(=O)C1CC1)CC2 | inactive: 5.42% | –
CCCc1nn2c(=O)cc(COC(=O)c3cccc(NC(=O)c4cccs4)c3)nc2s1 | – | inactive
COc1ccc(C(=O)NCC(c2cccnc2)N2CCN(c3ccccc3)CC2)cc1 (stereo not given) | inactive: 7.19% | –
COc1cccc(Cn2c(=O)cc(C)c3c(C)nn(C)c32)c1 | inactive: -3.95% | –
COc1ccc(OC)c(CCNC(=O)c2ccc3c(c2)c(C)c(C)n3Cc2ccccc2)c1 | – | inactive
COc1cc(NC(=O)CN2C(=O)c3ccccc3Sc3ccc(C(=O)N4CCCC4)cc32)cc(OC)c1 | inactive: -7.9% | –
CCOC(=O)c1ccccc1NC(=O)CN1CCCN(Cc2cc(C)ccc2C)S1(=O)=O | inactive: 7.77% | –
Cc1ccc(-n2nnc(-c3nc(-c4cccs4)no3)c2N)cc1C | inactive: 1.81% | –
O=C(NCCc1ccccc1)C(=O)NCC(c1ccco1)S(=O)(=O)c1cccs1 (stereo not given) | – | inactive
Cc1ccc(Cl)cc1NC(=O)COC(=O)CC(C)(C)CC1=NS(=O)(=O)c2ccccc2N1 | – | inactive
COc1ccc(-c2nc(CSc3nncn4c3cc3oc(C)cc34)c(C)o2)cc1 | inactive: 5.46% | –
Cc1ccccc1NC(=O)c1ccc(F)c(S(=O)(=O)N2CCN(c3ccccc3F)CC2)c1 | inactive: -10.4% | –
Cc1oc2ncnc(N3CCCCC3)c2c1C(=O)NCC1CCN(Cc2cccc(F)c2)CC1 | – | inactive
CCN1CCN(CCCNC(=O)CS(=O)(=O)Cc2nc(-c3cccc(OC)c3)oc2C)CC1 | inactive: 10.1% | –
CCOC(=O)c1[nH]c2ccccc2c1NC(=O)c1ccccc1F | – | inactive
CN(CC(=O)NCc1ccccc1)S(=O)(=O)c1ccc2[nH]c3c(c2c1)CCCC3 | inactive: 4.52% | –
Cn1cnnc1SCC(=O)Nc1ccc(C#N)cc1 | inactive: 2.76% | –
COC(=O)c1ccc(OCC2c3cc(OC)c(OC)cc3CCN2C(=O)Cc2ccccc2)cc1 (stereo not given) | – | inactive
CCCc1cc(C(=O)Nc2c(C)nn(Cc3c(Cl)cccc3Cl)c2C)no1 | inactive: -3.48% | –

Compound | activity change, negative = inhibition | outcome
Cc1cc(C)c(S(=O)(=O)Nc2ccc(-c3ccc(N4CCCCCC4)nn3)cc2)c(C)c1 | inactive: -14.2% | –
COc1ccc(-c2cn3nc(N4CCCC(C(=O)Nc5cc(C)cc(C)c5)C4)sc3n2)cc1 (stereo not given) | – | inactive
O=S(=O)(NCC(c1cccs1)S(=O)(=O)c1ccccc1)c1ccc(F)c(C(F)(F)F)c1 (stereo not given) | inactive: -20% | –
COc1ccc(-c2[nH]c(-c3cccc(OC)c3)nc2SCC(=O)NC2CCCC2)cc1 | inactive: -9.41% | –
COc1ccccc1N1CCN(c2ncnc3c2cnn3-c2cccc(Cl)c2)CC1 | inactive: -14.7% | –
CC(C)(C)C1CCc2c(sc(NC(=O)c3ccc(Cl)cc3)c2C(=O)NCc2ccco2)C1 (stereo not given) | inactive: 2.2% | –
CCc1ccccc1NC(=O)C1(C)Cc2ccccc2C(=O)O1 (stereo not given) | inactive: -14.8% | –
CC(C)(C)OC(=O)N1CCC(c2c(C(=O)NCCc3ccccc3)cnn2-c2ccc(F)cc2)CC1 | inactive: -2.14% | –
O=C(C1CCN(S(=O)(=O)c2ccc(Br)s2)CC1)N1CCN(c2ccccc2)CC1 | inactive: 4.05% | –
CC(C)[C@H](C(=O)Nc1ccc(C(=O)NO)cc1)c1ccccc1 | inactive: -24.6% | –
CCN(CC)S(=O)(=O)c1ccc(C(=O)N2CC(=O)Nc3ccc(F)cc3C2c2ccccc2)cc1 (stereo not given) | inactive: 1.11% | –
COc1ccc(OCC(=O)NCc2ccc3c(c2)CCN3C(=O)c2ccc(F)cc2)cc1 | – | inactive
CCc1ccc(-c2nn(CC(=O)NCc3ccccc3)c3c2cnc2ccc(F)cc23)cc1 | inactive: -1.77% | –
CC(=O)N1c2ccc(S(=O)(=O)NCC3CCC(C(=O)Nc4cc(C)ccc4C)CC3)cc2CC1C (stereo not given) | inactive: -21.9% | –
COc1cc(NC(=O)c2c(C)oc3c2C2=NCCN2C=N3)cc(OC)c1OC | inactive: -18.9% | –
CC(=O)Nc1ccc2nc(SCCOc3cc(C)cc(C)c3)sc2c1 | inactive: -7.94% | –
COc1ccc(CCN2C(=O)NC(NS(=O)(=O)c3ccc(NC(C)=O)cc3)(C(F)(F)F)C2=O)cc1OC (stereo not given) | – | inactive
COc1cc(NC(=O)COCc2cc(-c3ccc4c(c3)OCO4)on2)cc(OC)c1 | – | inactive
CN(C)c1ccc(/C=C(\C#N)c2nc(-c3ccc(Cl)c(Cl)c3)cs2)cc1 | inactive: 3.95% | –
COc1cc(NC(=O)c2oc3c(c2C)-c2nn(Cc4cccc(Cl)c4)cc2CC3)cc(OC)c1 | – | inactive
